Data published in PMC4336329 (PLoS ONE, 2015).
Out of some 310,000 compounds screened, about 2,200 (0.71%) showed an effect of 50% or more. The effect is printed as a negative number. The list shows a part of the results. Where a SMILES comes first, the peptide text is derived from it. The star is where a group is joined. Boc = CC(C)(C)OC(=O)*

biological target: human ether-à-go-go-related gene (hERG) potassium channel (human, UniProt Q12809); assay: primary screen, population patch clamp on CHO cells stably expressing hERG
Sequence (Q12809 whole entry, looked up): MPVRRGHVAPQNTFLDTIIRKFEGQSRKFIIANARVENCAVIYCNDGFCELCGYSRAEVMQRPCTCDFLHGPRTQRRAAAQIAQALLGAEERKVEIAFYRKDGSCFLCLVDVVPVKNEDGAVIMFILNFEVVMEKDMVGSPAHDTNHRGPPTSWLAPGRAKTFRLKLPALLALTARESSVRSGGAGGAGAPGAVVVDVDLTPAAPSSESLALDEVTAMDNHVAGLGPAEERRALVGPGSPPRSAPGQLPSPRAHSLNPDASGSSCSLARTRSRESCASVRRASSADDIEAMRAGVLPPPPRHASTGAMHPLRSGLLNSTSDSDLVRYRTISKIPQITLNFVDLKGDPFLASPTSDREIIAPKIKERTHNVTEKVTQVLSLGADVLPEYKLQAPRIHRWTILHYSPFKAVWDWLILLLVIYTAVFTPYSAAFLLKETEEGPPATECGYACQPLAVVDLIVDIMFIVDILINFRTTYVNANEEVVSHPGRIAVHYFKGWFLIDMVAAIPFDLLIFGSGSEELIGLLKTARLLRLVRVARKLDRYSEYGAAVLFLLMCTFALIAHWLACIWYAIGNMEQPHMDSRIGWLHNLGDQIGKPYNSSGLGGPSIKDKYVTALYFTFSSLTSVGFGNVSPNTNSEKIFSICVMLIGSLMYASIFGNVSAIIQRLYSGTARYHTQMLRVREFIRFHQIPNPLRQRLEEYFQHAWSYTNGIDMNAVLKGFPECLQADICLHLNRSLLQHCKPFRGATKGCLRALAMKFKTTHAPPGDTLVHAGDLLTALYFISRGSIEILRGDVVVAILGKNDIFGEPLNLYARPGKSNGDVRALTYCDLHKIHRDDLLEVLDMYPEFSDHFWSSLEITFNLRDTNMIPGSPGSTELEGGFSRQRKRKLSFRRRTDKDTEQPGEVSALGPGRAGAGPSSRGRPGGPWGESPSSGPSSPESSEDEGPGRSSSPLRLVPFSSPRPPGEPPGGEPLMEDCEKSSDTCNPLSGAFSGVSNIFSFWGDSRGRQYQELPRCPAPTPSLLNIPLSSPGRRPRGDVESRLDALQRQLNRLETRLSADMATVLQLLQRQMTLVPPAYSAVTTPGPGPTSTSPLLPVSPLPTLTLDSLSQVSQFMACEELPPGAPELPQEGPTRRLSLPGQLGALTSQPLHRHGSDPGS

Row | SMILES | hERG current change (%, negative = inhibition) at 1uM
1 | Cc1cc(C(=O)CSc2nnnn2C)c(C)n1C1CC1 | 13%
2 | Cc1ccc(N2C(=O)N(CC(=O)Nc3cc(Cl)ccc3C)C(=O)C2C)cc1 (centres unmarked) | 9.37%
3 | COC(=O)N1C(=O)[C@@](c2ccccc2)(C(C)C)N1C(=O)OC | 14.6%
4 | CN(C)CCNc1ncnc2ccccc12.Cl | 8.87%
5 | O=C(NNC(=O)c1cccs1)c1ccc(Cl)c([N+](=O)[O-])c1 | 5.54%
6 | Cn1cccc1CC(=O)N/N=C/c1ccc(Cl)c([N+](=O)[O-])c1 | 7.42%
7 | Cc1ccc(-c2nn(CC(=O)NN3CCOCC3)c(=O)c3ccccc23)cc1 | 9.85%
8 | CSCCC(NC(=O)c1cccc(C)c1)C(=O)OCC(=O)NC(=O)c1cccn1C (centres unmarked) | 7.19%
9 | O=C(Nc1cccc(Br)c1)C1CCCC1 | 20.4%
10 | CCSC1=N/C(=C\C=C2/Oc3ccccc3N2CC)C(=O)S1 | 18.1%
11 | COc1ccc(N2CC(C(=O)Nc3nc4ccc(OC)cc4s3)CC2=O)cc1 (centres unmarked) | 6.71%
12 | Cc1ccc(C(OC(=O)c2ccco2)C(=O)NC(C)(C)C)cc1 (centres unmarked) | 11.9%
13 | Cc1ccc(S(=O)(=O)N2CCOCC2)cc1NC(=O)CSc1cccc[n+]1[O-] | -0.851%
14 | Cc1cccc(C)c1NC(=O)c1cccc(COc2cc(Cl)ccc2Cl)c1 | 12.4%
15 | CCCCNC(=O)[C@]1(C)CCC[C@@]2(C)C3CC[C@@]4(C)C[C@]3(CCC21)CC4=O (some centres unmarked) | 7.77%
16 | COc1ccc(C2Cc3ccccc3C(=O)O2)cc1 (centres unmarked) | 2.11%
17 | CCOC(=O)Cc1csc(NC(=O)c2ccc(Cl)nc2)n1 | 23%
18 | COc1ccc(OCCCC(=O)OC(C)C(=O)Nc2ccc(S(N)(=O)=O)cc2)cc1 (centres unmarked) | 1.11%
19 | CCN(CC)C(=O)C(=O)N/N=C/c1cccs1 | 22.6%
20 | COCCOC(=O)c1c(C)n(C)c2ccc(OC(=O)c3ccccc3F)cc12 | -4.23%
21 | O=C(NNC(=S)Nc1ccccc1)c1cc(-c2cccnc2)nc2ccccc12 | 11.3%
22 | CCC(=O)Nc1ccc(-c2nnc(-c3ccccc3)o2)cc1 | 11.1%
23 | O=C(N/N=C/c1cc2c(cc1[N+](=O)[O-])OCO2)c1cccnc1 | 3.92%

Row | SMILES | hERG current change (%, negative = inhibition) at 1uM
24 | O=C(Nc1ccnn1C1CCN(C(=O)c2ccccc2C(F)(F)F)CC1)C1CC1 | 24.5%
25 | CC(=O)Oc1cccc(N2C(=O)CC(Nc3ccc(N4CCOCC4)cc3)C2=O)c1 (centres unmarked) | 7.28%
26 | O=C(O)c1ccc(N2CCOCC2)c(N2C(=O)C3C4C=CC(C4)C3C2=O)c1 (centres unmarked) | 13.2%
27 | CN(C)CC(=O)Nc1cc(C(F)(F)F)ccc1Cl | 11.8%
28 | Cn1c(N/N=C\c2cccc(O)c2)cc(=O)n(C)c1=O | 8.68%
29 | CC(=O)Oc1ccc2oc(/C=C/N(C)C)c([N+](=O)[O-])c2c1 | 14.9%
30 | CSc1ccccc1NC(=O)CN(C)CC(=O)Nc1cccc(Br)c1 | 6.04%
31 | COc1cccc(S(=O)(=O)NCC(=O)N2CCCC2)c1 | 22.1%
32 | Cc1cccn2c(=O)c(/C=C3\SC(=S)N(CC(C)C)C3=O)c(NCCCOC(C)C)nc12 | 0.944%
33 | COC(=O)CCNC(=O)Cn1cnc2sc3c(c2c1=O)CCCC3 | 6.87%
34 | CSCCC(NC(=O)c1ccco1)C(=O)NCC(c1ccccc1)N(C)C (centres unmarked) | 2.41%
35 | CN(Cc1ccccc1)c1nc2c(c(=O)n(C)c(=O)n2C)n1CCCc1ccccc1 | 8.32%
36 | CCOc1ccc2[nH]c(=O)c(CN(CCc3ccccc3)C(=O)c3cnccn3)cc2c1 | 0.505%
37 | COc1ccccc1CNC(=O)C(NS(=O)(=O)c1cccc2nsnc12)C(C)C (centres unmarked) | 7.12%
38 | CC(=O)Nc1ccc(NC(=O)/C=C/c2ccccc2)cc1 | -4.75%
39 | Cn1c(Cc2ccccc2)nnc1SCC(=O)Nc1ccc(N2CCOCC2)cc1 | 9.84%
40 | Cn1nnnc1SCc1cn2cccnc2n1 | 9.44%
41 | O=C(c1cc(COc2ccc3ncccc3c2)on1)N1CCCC(O)C1 (centres unmarked) | 10.7%
42 | Cn1nccc1C(=O)N/N=C/c1ccccc1[N+](=O)[O-] | 11.8%
43 | CCOC(=O)c1ccccc1NC(=O)COC(=O)CSC(C)C(=O)Nc1cc(C)on1 (centres unmarked) | 4.4%
44 | Cc1ccc(S(=O)(=O)N2CCN(c3nc(C(C)C)c4c(c3C#N)CC(C)(C)OC4)CC2)cc1 | 11.8%
45 | O=C1NC(=O)/C(=C\c2ccc(Oc3ccc([N+](=O)[O-])cn3)cc2)S1 | 18.5%
46 | COC(=O)c1cc(=O)cc(C(=O)OC)o1 | 9.97%

Row | SMILES | hERG current change (%, negative = inhibition) at 1uM
47 | Cc1cc(C(=O)CSc2nnnn2C)c(C)n1-c1cccc(F)c1 | 1.66%
48 | CCn1c(C)cc(O)cc1=O | 9.68%
49 | CC(=O)Nc1ccc(S(=O)(=O)N2CCC(c3nc4ccc(C)cc4[nH]3)CC2)cc1 | -15.8%
50 | CC12CCC(=O)N1C(C(=O)OCC(=O)Nc1cc(S(=O)(=O)N3CCCCC3)ccc1Cl)CS2 (centres unmarked) | 11.1%
51 | Clc1cccc(CN2CCCCCC2)c1 | 12.3%
52 | Cc1cc(C)c(CN2CCC(n3nccc3NC(=O)CCOc3ccccc3)CC2)cc1C | 14.4%
53 | NC(=O)c1ccc(NC(=O)c2cc(S(=O)(=O)N3CCCCC3)ccc2N2CCOCC2)cc1 | 13.4%
54 | CCSC1=NCCN1C(=O)C(C)(C)Oc1ccc(Cl)cc1 | 12.2%
55 | Cc1ccc(S(=O)(=O)N2CCN(C(=O)c3ccc(COc4ccccc4)o3)CC2)cc1 | 5.45%
56 | CCCCNC(=O)c1onc(CS(=O)(=O)c2ccccn2)c1C(=O)NCCCC | -1.58%
57 | CC(=O)c1c(C)nc(-c2ccccc2)nc1NC(=O)Cc1ccccc1 | 9.16%
58 | CCCc1nc2ccccc2c(=O)n1-c1c(C)n(C)n(-c2ccccc2)c1=O | 0.991%
59 | CC[C@]1(c2ccccc2C)ON(c2ccccc2C(F)(F)F)C1=O | 9.17%
60 | O=C(NNC(=O)C1[C@H]2CCCC[C@@H]12)NC1CCCCC1 (some centres unmarked) | 7.63%
61 | Cc1cccc(CN2CCCN(Cc3ccc(Cl)cc3)S2(=O)=O)c1 | 3.91%
62 | Cc1nc(SCc2cccc(F)c2)[nH]c(=O)c1C#N | 0.264%
63 | O=C(O)C(=O)O.O=C(c1ccccc1)N1CCN(Cc2ccccc2C(F)(F)F)CC1 | 9.4%
64 | CCN(CC)CCCNC(=O)c1cc2c(=O)[nH]c3ccc(C)cc3c2s1 | 14.6%
65 | CC1CN(CCCCN2C(=O)c3ccccc3C2=O)CC(C)O1.O=C(O)C(=O)O (centres unmarked) | 10.5%
66 | CC(C)CC(NC(=O)C1CCC(=O)N1C(=O)OCc1ccccc1)C(=O)NC(Cc1ccccc1)C(N)=O (centres unmarked) | 17.7%
67 | COC(=O)c1sccc1NC(=S)NCc1ccc(Cl)cc1 | 15.6%
68 | COc1ccccc1CNC(=O)C1CCN(c2ncnc3c2nc2n3CCCCC2)CC1 | 11.9%
69 | CCOc1ccccc1NC(=O)c1ccc(S(=O)(=O)N2CCCCC2)cc1 | 12.6%

Row | SMILES | hERG current change (%, negative = inhibition) at 1uM
70 | N/C(Cn1nnc(-c2ccccc2)n1)=N\O | -2.88%
71 | CCC(C)C(NC(=O)OC(C)(C)C)C(=O)NC(C)C(N)=O (stereo not drawn) (Boc-Ile-Ala-NH2; configuration not given here) | 11.1%
72 | COc1cc2nc(CN3C(=O)c4ccccc4C3=O)oc(=O)c2cc1OC | 17.4%
73 | C#CCN(C)CC/C=C1\c2ccccc2CSc2ccccc21.Cl | 3.79%
74 | Cc1cc(N)n(-c2nc3ccccc3s2)n1 | -0.476%
75 | CC1CCCC(C)N1CCNC(=O)Cn1nc(-c2ccccc2)ccc1=O (centres unmarked) | -2.41%
76 | CCCCOC(=O)Nc1sc2c(c1C(=O)OC)CCC2 | 2.38%
77 | COC(=O)CSc1nnc(-c2ccc(OC)cc2OC)o1 | -4.1%
78 | Cc1c(C(=O)NCC2CCCO2)oc2ccc3c(c12)C(=O)CC(C)(C)O3 (centres unmarked) | 10%
79 | FC(F)(F)c1nc2nncn2c2c1CCCCC2 | -0.576%
80 | CCCc1cc(SCC(=O)Nc2c(C)n(C)n(-c3ccccc3)c2=O)n2c(nc3ccccc32)c1C#N | 5.01%
81 | O=C(OCC(=O)c1c[nH]c2ccccc12)C1=COCCO1 | 10.1%
82 | CCOC(=O)C1=C(COC(=O)C(CC)c2ccccc2)NC(=O)NC1C (centres unmarked) | 14.9%
83 | COc1cc(SC)ccc1C(=O)OCC(=O)NCCC1=CCCCC1 | 8.39%
84 | COc1ccccc1-c1nnc(NC(=O)c2ccccc2F)o1 | 3.1%
85 | CCOc1ccc(NC(=O)CSc2nnc(Cc3cccn3C)n2-c2ccc(OC)cc2)cc1 | -5.16%
86 | CSc1ccccc1NC(=O)CO/N=C(\C)c1cc2ccccc2o1 | 6.83%
87 | COc1ccc(C(=O)C2CCCN(C(=O)CSC)C2)cc1OC (centres unmarked) | 11.9%
88 | O=S(=O)(c1ccc(N2CCCC2)cc1)C(F)(F)F | 10%
89 | O=C(CCc1nc(-c2ccccc2F)no1)Nc1cccnc1 | 5.53%
